From PMC4336329 (PLoS ONE, 2015)
The campaign covered roughly 310,000 compounds. About 2,200 (0.71%) showed an effect of 50% or more. The effect is printed as a negative number. Some of the results follow.

These compounds were tested against human ether-à-go-go-related gene (hERG) potassium channel (human, UniProt Q12809) (assay: primary screen, population patch clamp on CHO cells stably expressing hERG).
Chain of human ether-à-go-go-related gene (hERG) potassium channel (Q12809 whole entry, looked up): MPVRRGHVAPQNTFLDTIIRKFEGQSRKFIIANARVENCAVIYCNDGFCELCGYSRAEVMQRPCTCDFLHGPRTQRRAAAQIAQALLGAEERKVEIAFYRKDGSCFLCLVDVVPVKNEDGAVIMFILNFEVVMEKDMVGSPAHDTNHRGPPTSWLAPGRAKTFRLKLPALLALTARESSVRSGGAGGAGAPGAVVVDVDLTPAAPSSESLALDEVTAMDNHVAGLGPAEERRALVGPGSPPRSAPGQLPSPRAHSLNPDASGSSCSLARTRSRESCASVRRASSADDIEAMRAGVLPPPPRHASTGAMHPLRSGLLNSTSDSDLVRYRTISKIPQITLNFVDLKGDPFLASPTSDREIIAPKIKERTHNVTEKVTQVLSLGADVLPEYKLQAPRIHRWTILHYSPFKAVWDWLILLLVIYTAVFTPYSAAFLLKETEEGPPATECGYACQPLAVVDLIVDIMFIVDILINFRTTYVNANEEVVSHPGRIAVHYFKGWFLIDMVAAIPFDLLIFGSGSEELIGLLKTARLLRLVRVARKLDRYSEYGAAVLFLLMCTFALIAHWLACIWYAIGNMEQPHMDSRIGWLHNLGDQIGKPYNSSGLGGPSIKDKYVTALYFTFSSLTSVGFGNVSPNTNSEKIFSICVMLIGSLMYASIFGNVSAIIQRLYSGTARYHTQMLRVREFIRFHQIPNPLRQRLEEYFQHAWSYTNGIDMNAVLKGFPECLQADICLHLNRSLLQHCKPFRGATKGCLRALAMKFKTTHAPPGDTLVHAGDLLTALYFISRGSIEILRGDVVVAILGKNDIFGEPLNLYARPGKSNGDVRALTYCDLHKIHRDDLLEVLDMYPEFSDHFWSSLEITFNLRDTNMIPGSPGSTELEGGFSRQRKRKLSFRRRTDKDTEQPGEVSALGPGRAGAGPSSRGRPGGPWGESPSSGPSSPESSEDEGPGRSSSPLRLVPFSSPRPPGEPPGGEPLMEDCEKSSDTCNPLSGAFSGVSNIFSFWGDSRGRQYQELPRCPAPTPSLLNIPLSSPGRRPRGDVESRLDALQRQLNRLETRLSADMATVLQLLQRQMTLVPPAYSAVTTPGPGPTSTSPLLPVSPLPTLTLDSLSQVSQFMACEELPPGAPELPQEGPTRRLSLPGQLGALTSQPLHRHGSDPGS

Compound | hERG current change (%, negative = inhibition) at 1uM
CC(C)[C@H](N)C(=O)NC[C@H](CC(=O)NCC1CCC(C(=O)O)CC1)c1ccc(Cl)cc1.Cl (some centres unmarked) | 16.3%
COc1ccc(N2C(=O)NC(=O)C(CCc3ccncc3)(CCc3ccncc3)C2=O)cc1 | 0.0961%
CCOC(=O)N1CCN(C(=O)c2ccc3c(=O)n(CCc4ccccc4)c(=S)[nH]c3c2)CC1 | 5.65%
COc1ccc(CN2CCNC(=O)C2CC(=O)N(C)Cc2cc(C)no2)cc1OC (centres unmarked) | 6.52%
CCCCn1c(N)c(N(CC(C)C)C(=O)CCCn2c(=O)oc3ccccc32)c(=O)[nH]c1=O | -3.99%
O=C(O)CN1C(=O)/C(=C\c2cccc(OC(=O)c3ccco3)c2)SC1=S | 5.92%
Cc1ccsc1C(=O)NCCC(c1ccccc1)c1ccccc1 | 14.2%
COC(=O)c1ccc2c(=O)n(CC3CCCO3)c(SCC(=O)NCCc3ccc(S(N)(=O)=O)cc3)nc2c1 (centres unmarked) | 8.72%
O=C(Nc1nc2cc3c(cc2s1)OCCO3)c1cccc(N2C(=O)CCC2=O)c1 | -8.15%
COc1cc(/C=N/NC(=O)c2ccncc2)ccc1OC(=O)c1ccco1 | 10.5%
CCCCSc1nc2c(c(=O)[nH]c(=O)n2C)n1CCc1ccccc1 | 10%
COc1cccc(CNC(=O)C2(C)Oc3ccccc3NC2=O)c1 (centres unmarked) | 13.7%
CSc1nc(N2CCOCC2)c2ccccc2n1 | 3.95%
CC(=O)Nc1ccc(N2C(=O)CC(N3CC(C)OC(C)C3)C2=O)cc1 (centres unmarked) | 10.7%
Cc1cc(OCC(=O)NCc2ccccn2)cc(C)c1Br | 7.49%
COc1cc(/C=N/NC(=O)c2cccnc2)ccc1OC(=O)c1cc(OC)c(OC)c(OC)c1 | 19%
O=C(CSc1nnc(-c2ccco2)o1)N1CCOCC1 | -1.5%
CN1CCN(C(=O)C2CCCN(c3ncnc4c3nc3n4CCCCC3)C2)CC1 (centres unmarked) | 14.5%
CCCCn1c(=N)n(CC(O)COc2cccc(C)c2)c2ccccc21.Cl (centres unmarked) | -59.8%
CCOc1ccc(N(C(=O)c2snc(C(N)=O)c2N)C(C(=O)NC2CCCC2)c2ccncc2)cc1 (centres unmarked) | 14.9%
COc1ccc(CN2CCN(C(=O)Cc3ccccc3)CC2)cc1Br.O=C(O)C(=O)O | 16.8%
Nc1ccc(Oc2ccc([N+](=O)[O-])cc2[N+](=O)[O-])cc1 | -5.14%
Cc1ccc(NCc2ccncc2)c(Br)c1.O=C(O)C(=O)O | 0.799%
